# Records with an inconclusive call do not appear. Unless noted, calls come from the whole dose curve; as a rule, active = well fitted curve in the direction sought with a large enough effect in the repeat runs; inconclusive = weak or mixed curves; inactive = no such curve, though single readings can be large; an effect the other way counts as inactive or inconclusive. Some compounds were tested as several samples or in several runs, with calls that do not always agree. Certain results were filed several times, with different values. The list is limited to them. There may be further records. Results that share an entry are repeats across runs, samples, wells, individuals or studies. Marks in square brackets tell the records apart. Letters count within one entry.
# Tests used:
# [1] = qHTS assay for small molecules that induce genotoxicity in human embryonic kidney cells expressing luciferase-tagged ATAD5 - cell viability (AID 651634; calls by dose curve; note: nearly all actives have a fitted effect of over 25% in size)
# Outline: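 Seeding of 2,000 HEK293T ATAD5-luciferase cells per well preceded pin-tool compound transfer. Plates sat 15.5 hr at 37C under 5% CO2, then fluorescence was read after 30 min with CellTiter-Fluor.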
# [2] = A CellTox Green Cytotoxicity Assay to monitor cytotoxicity in HEK293 cells - 24 hour (AID 1224875); note: nearly all actives have a fitted effect of over 45% in size
# Outline: (§1)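 Seeding of HEK293 cells together with cytotoxicity dye preceded a 5 h incubation at 37 C/5% CO2. Test compounds in DMSO were then added and fluorescence monitored across 40 h.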
# [3] = A CellTox Green Cytotoxicity Assay to monitor cytotoxicity in HEK293 cells - 16 hour (AID 1224888); note: nearly all actives have a fitted effect of over 35% in size
# Outline: as §1
# [4] = qHTS assay to identify small molecule antagonists of the glucocorticoid receptor (GR) signaling pathway - cell viability counter screen (AID 720693); note: nearly all actives have a fitted effect of over 55% in size
# [5] = qHTS assay to identify small molecule antagonists of the androgen receptor (AR) signaling pathway using the MDA cell line - cell viability counter screen (AID 743041; note: nearly all actives have a fitted effect of over 45% in size)
# Outline: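 MDA-kb2 AR-luc cells (MMTV-luciferase, AR/GR responsive) treated with compounds plus R1881 agonist for 16 h at 37C. CellTiter-Fluor added at 15.5 h; fluorescence read after 30 min in the same wells.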
# [6] = qHTS assay to identify small molecule antagonists of the thyroid receptor (TR) signaling pathway (AID 743065); note: nearly all actives have a fitted effect of over 55% in size
# Outline: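 GH3.TRE-Luc rat pituitary cells (two TREs driving luciferase) were dosed with compound, then stimulated with 1 nM T3 (final) for 23.5 h at 37 C. ONE-Glo luminescence was the read-out, with CellTiter-Fluor fluorescence as the cytotoxicity counter-screen.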
# [7] = qHTS assay to identify small molecule agonists of the sonic hedgehog signaling (Shh) pathway (AID 1259368; calls by dose curve; note: nearly all actives have a fitted effect of over 15% in size)
# Outline: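 Mouse fibroblast (NIH/3T3) reporter cells with stably integrated Gli1-Luc were treated 24 hr with compound; firefly luciferase luminescence served as the read-out.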
# [8] = qHTS assay to identify small molecule antagonists of the TGF-beta/Smad signaling pathway - cell viability counter screen (AID 1346824); note: nearly all actives have a fitted effect of over 50% in size
# Outline: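 SBE-bla HEK 293T cells, incubated overnight, then compound plus 0.25 ng/mL TGF-beta1 (stock added) for 5 hr at 37 C. Viability was read in the same wells by CellTiter-Glo luminescence after 30 min at room temperature.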
# Potency is the fitted concentration of half-maximal effect.
smiles,measurement,setting,value
CC(C)(c1cc(Br)c(O)c(Br)c1)c1cc(Br)c(O)c(Br)c1,Potency,[1],inactive [sample A] and active: 57.9 µM [sample B]
C=C(c1ccc(C(=O)O)cc1)c1cc2c(cc1C)C(C)(C)CCC2(C)C,Potency,[1],inactive [sample A] and active: 61.1 µM [sample B]
same,Potency,[2],active: 30.9 µM [sample A] and inactive [sample B]
same,Potency,[3],active: 24.5 µM [sample A] and inactive [sample B]
CCOC(=O)N1CCC(=C2c3ccc(Cl)cc3CCc3cccnc32)CC1,Potency,[4],inactive [sample A] and active: 49 µM [sample B]
CO[C@H]1C=CO[C@@]2(C)Oc3c(C)c(O)c4c(O)c(cc(O)c4c3C2=O)NC(=O)/C(C)=C\C=C/[C@H](C)[C@H](O)[C@@H](C)[C@@H](O)[C@@H](C)[C@H](OC(C)=O)[C@@H]1C,Potency,[5],inactive [sample A] and active: 61.6 µM [sample B]
S=P(N1CC1)(N1CC1)N1CC1,Potency,[6],inactive [sample A] and active: 32.3 µM [sample B]
CCCCC(CC)COC(=O)c1ccc(O)cc1 (stereo not given),Potency,[3],active: 38.8 µM [sample A] and inactive [sample B]
CCCCCCCCCCCCOC(=O)c1cc(O)c(O)c(O)c1,Potency,[7],inactive [sample A] and active: 21.7 µM [sample B]
same,Potency,[8],active: 54.7 µM [sample A] and inactive [sample B]

# Source: PubChem BioAssay (Tox21)
